# From publication PMC4336329 (PLoS ONE, 2015)
# The whole screen tested about 310,000 compounds, of which about 14,000 (4.5%) showed an effect of 50% or more. The effect is printed as a negative number. This is one part of the list.
# Molecular target: human ether-à-go-go-related gene (hERG) potassium channel (human, UniProt Q12809)
# Experiment: primary screen, population patch clamp on CHO cells stably expressing hERG
# 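Note: peak tail current of the secondary pulse compared with the same well before compound.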
# Chain of human ether-à-go-go-related gene (hERG) potassium channel (Q12809 whole entry, looked up): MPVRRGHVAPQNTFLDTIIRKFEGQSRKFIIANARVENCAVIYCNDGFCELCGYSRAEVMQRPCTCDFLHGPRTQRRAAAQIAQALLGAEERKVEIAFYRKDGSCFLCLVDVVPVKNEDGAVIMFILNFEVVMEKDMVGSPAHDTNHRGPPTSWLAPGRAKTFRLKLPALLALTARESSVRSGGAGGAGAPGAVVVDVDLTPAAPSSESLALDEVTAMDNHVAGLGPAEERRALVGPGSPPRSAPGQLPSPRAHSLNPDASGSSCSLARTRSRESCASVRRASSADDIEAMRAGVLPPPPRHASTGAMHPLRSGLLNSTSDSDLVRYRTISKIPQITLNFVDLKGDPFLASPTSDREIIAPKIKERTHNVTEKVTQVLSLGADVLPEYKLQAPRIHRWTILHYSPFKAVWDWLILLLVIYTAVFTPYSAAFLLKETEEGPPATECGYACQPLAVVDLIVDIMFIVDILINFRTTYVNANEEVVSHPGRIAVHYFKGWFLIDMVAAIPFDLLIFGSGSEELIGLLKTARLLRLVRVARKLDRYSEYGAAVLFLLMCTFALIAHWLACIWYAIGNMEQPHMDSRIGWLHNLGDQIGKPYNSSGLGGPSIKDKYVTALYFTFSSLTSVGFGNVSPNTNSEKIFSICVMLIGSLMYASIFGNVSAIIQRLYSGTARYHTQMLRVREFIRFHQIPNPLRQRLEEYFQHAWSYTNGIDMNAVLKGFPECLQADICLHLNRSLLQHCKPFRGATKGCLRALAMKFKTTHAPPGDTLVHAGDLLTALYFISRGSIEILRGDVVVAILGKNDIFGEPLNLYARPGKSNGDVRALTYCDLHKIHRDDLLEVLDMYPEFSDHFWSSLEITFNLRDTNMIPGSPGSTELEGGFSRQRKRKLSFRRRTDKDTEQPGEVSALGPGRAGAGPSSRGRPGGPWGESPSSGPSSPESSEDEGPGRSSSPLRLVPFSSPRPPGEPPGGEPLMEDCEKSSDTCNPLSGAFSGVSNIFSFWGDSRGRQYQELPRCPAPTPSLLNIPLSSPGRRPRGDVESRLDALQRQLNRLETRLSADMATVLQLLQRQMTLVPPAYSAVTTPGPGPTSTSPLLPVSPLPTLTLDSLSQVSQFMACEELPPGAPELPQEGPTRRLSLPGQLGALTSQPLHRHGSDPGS
row,Structure (SMILES),"hERG current change (%, negative = inhibition) at 10uM [%]"
1,COc1ccc(N2CCN(C(=O)C3CCCO3)CC2)cc1 (stereo not drawn),7.55
2,CCCN1CNc2c(c(=O)[nH]c(=S)n2-c2ccccc2Cl)C1,11.4
3,N#Cc1c(C#N)c(-c2ccccc2)n(-c2ccccc2)c1N,-0.71
4,CCOC(=O)c1sc(NC(=O)CSc2nc(C)cc(-c3ccccc3)n2)c(C#N)c1C,18.3
5,COc1cc(C(C)=O)ccc1OCC(O)Cn1nc(C)c(C(C)=O)c1C (stereo not drawn),-1.6
6,COc1cc(C(=O)OCC(=O)NC2CCS(=O)(=O)C2)ccc1OCc1c(C)noc1C (stereo not drawn),6.91
7,Cc1cccc(C2(c3cccc(C)c3)CC2C(=O)NCC2CCCO2)c1 (stereo not drawn),-6.94
8,Cc1cc2cc(CNC(=S)Nc3ccc(OC(F)(F)F)cc3)ccc2[nH]1,16.3
9,CCOc1ccccc1C(=O)Nc1cccc2ccccc12,17.8
10,Cc1ccc(NC(=O)c2c(C)nc3sc(C(=O)NC4CCCC4)c(N)c3c2-c2ccco2)c(C)c1,-0.174
11,COc1ccc(S(=O)(=O)NCCNC(=O)N2CCOCC2)cc1,-13.7
12,COc1ccc(N2C(=O)CSC2c2ccncc2)cc1 (stereo not drawn),13.1
13,O=C(NC1=NC2CCCCC2N1)c1ccccc1 (stereo not drawn),19.2
14,Cc1cccc(NC(=O)C2CCCN(c3cnccn3)C2)c1 (stereo not drawn),-5.03
15,O=P(O)(O)COc1ccccc1P(=O)(c1ccccc1)c1ccccc1,5.84
16,CN(C)S(=O)(=O)c1cccc(-c2nnc3n2CCCCC3)c1,0.501
17,COc1cccc(Cn2c(-c3nonc3N)nc3ccccc32)c1,-11.7
18,O=C1CN(C(=O)COc2ccc(Br)cc2Br)c2ccccc2N1,6.68
19,Cc1ccc(CNCc2ccc3c(c2)OCO3)cc1,-0.503

row,Structure (SMILES),"hERG current change (%, negative = inhibition) at 10uM [%]"
1,CC1(C)NC(=O)N(CC(O)CN(Cc2ccccc2)Cc2ccccc2)C1=O (stereo not drawn),-1.49
2,Cc1nn(CC#N)c(=O)n1-c1ccc(C(C)C)cc1,5.18
3,Cc1ccc(C)c(NC(=S)N2CCN(Cc3ccccc3)CC2)c1,11.2
4,O=C(O)C1=C[C@@H](c2csc3ccccc23)C[C@@H](OCCCCO)O1,3.14
5,NC(=O)C1=C[C@@H](c2csc3ccccc23)C[C@@H](OCc2ccc(CO)cc2)O1,-19.1
6,C=CCSc1nc2sc3c(c2c(=O)[nH]1)CCC3,2.84
7,Cc1ccccc1C(=O)Nc1ccc2c(c1)CCCN2C(=O)c1cccs1,-9.52
8,Cc1ccn2c(=O)nc(SCC(=O)N3CCCCCC3)nc2c1,11.8
9,O=C(/C=C/c1ccccc1[N+](=O)[O-])N1CCc2ccccc2C1,-38.7
10,O=C(NC1CCCCCCC1)C1c2ccccc2C(=O)N1Cc1ccco1 (stereo not drawn),-14.4
11,COCCNC(=S)N(CCO)Cc1cc2cc3c(cc2[nH]c1=O)OCO3,19.8
12,O=C(NNC(=S)NCc1ccccc1)c1ccc(Br)o1,18.5
13,CCn1c(-c2cccnc2Cl)nc2cc(C)c(C)cc21,14.5
14,CCOC(=O)Cc1csc(NC(=O)c2ccc(Br)cc2)n1,13.4
15,CC(=O)NCCc1nc2ccccc2n1CCOc1ccccc1,1.52
16,Cn1nc(-c2ccc(N3CCOCC3)c(NS(=O)(=O)c3ccccc3)c2)c2ccccc2c1=O,-15.6
17,CC1CCCCN1C(=O)NC12CC3CC(CC(C3)C1)C2 (stereo not drawn),-7.43
18,O=C(CSc1nnc(CNc2ccc(Cl)cc2)o1)Nc1nc2c(s1)CCCC2,-6.9
19,CCN(CC)CCCN=Cc1c(O)n(-c2cccc(C)c2)c(=O)c2ccccc12,-42.8

row,Structure (SMILES),"hERG current change (%, negative = inhibition) at 10uM [%]"
1,COc1c(C)cc(C(=O)C2CCCN(Cc3cccc4nccnc34)C2)cc1C (stereo not drawn),-64.5
2,COc1ccc(O)c(C(=O)c2cnn(C(=O)c3cc(C)oc3C)c2)c1,13
3,Cc1ccc(S(=O)(=O)NNc2ccccc2)c(C)c1,-0.462
4,Cc1ccc(OCC(=O)N(C)CC(=O)Nc2ccc(Cl)c(C(F)(F)F)c2)c([N+](=O)[O-])n1,-54.8
5,Cc1cc(NC(=O)CSc2nc(C(C)(C)C)nc3ccccc23)no1,18.8
6,CCCn1nc(NC(=O)c2ccco2)c2cc3cc(C)ccc3nc21,1.55
7,O=c1cc[nH]c2cccc(Cc3ccccc3)c12,-3.29
8,Cc1noc(C)c1S(=O)(=O)N1CCC(Cc2ccccc2)CC1,0.232
9,COC(=O)c1ccc(NC(=O)c2cccc(Cl)c2)o1,-11.8
10,COc1cc(OC)c(NC(=O)CNC(=O)Cn2ccc3ccccc3c2=O)cc1Cl,23.4
11,COC(=O)C1=C(c2c(C)noc2C)C[C@@H]2CC[C@H]1N2C(=O)N1CCC(O)CC1,16.6
12,Cc1cc(C)c(C)c(OCCN2CC(C)OC(C)C2)c1.O=C(O)C(=O)O (stereo not drawn),6.21
13,CCOC(=O)C1CCN(c2c(N3CCCC(C(=O)OCC)C3)c(=O)c2=O)CC1 (stereo not drawn),-22.8
14,COc1ccccc1N1CCN(CC(O)COc2ccc3c(c2)OCO3)CC1.Cl (stereo not drawn),-33.7
15,COc1cc(-c2[nH]ncc2CN2CCCC2c2nonc2C)cc(OC)c1OC (stereo not drawn),-17.6
16,CC(=O)Nc1ccc(NC(=O)CN2C(=O)COc3ccc(S(=O)(=O)N4CCOCC4)cc32)cc1,21.1
17,COCCNCC(=O)Nc1ccc(C)c(S(=O)(=O)N2CCCCC2)c1.O=C(O)C(=O)O,-11.5
18,c1ccc(CCn2c(SCc3ccccc3)nnc2-c2ccncc2)cc1,-41.4
19,Cc1cc(=O)oc2cc(OCC(=O)Nc3ccc(S(=O)(=O)N(C)C)cc3)ccc12,-1.43
